The text below walks through data of the supplement of paper PMC10338343.

± gives the standard deviation. The list shows a part of the results, in another mix than the full data. Bounds are passed on as bounds.

The test system of one experiment is MIWI (PIWIL1) piRISC loaded with L1MC piRNA (30 nt). Description: pre-steady-state target cleavage rate (min^-1); MIWI and MILI are mouse PIWI proteins and EfPiwi is from a freshwater sponge; tags in brackets are library labels; higher = faster piRNA-guided slicing of the target. The note with it: guide: L1MC piRNA 5'p-UAACUAAAUACUAUGCAAGCUGUAGGUCCU; auxiliary factor: 500 nM mouse GTSF1. The protocol:
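Cleave-'n-Seq: a library of target RNAs (target site embedded in constant flanks, ACAGCATTCCGCGTTAGTGATATCCG... 5' flank; DNA-blocked outside the site) at 0.1 nM was incubated with 1 nM active mouse MILI or MIWI piRISC (synthetic 5'-monophosphorylated piRNA guide) with or without 500 nM mouse GTSF1 at 33 °C for 1 min to 16 h. Uncleaved targets were sequenced and normalised to non-target controls, and the pooled three trials were fitted to a burst-and-steady-state model to give the pre-steady-state cleavage rate (min^-1; k3 is constrained to at most 1e-4). Sequence is the target site only; target names encode pairing extent (gX:gY) and contiguous / 1-mismatch / 2-mismatch / bulge geometry. Fits with R² ≤ 0 are excluded.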
As to UCGACCUACAGCUUGCAUAGUAUAAAGUAA, the “pre-steady-state target cleavage rate” value worked out at 0.318 ± 0.036. On the same count and under the same terms, then UCCUGGAUGUGCUGCAUAGUAUUUAGUUA, with 0.0143 ± 0.0034.

With UCCUCCUACAGCUUGCUUUGUAUUUAGUUA, the “pre-steady-state target cleavage rate” value was found to be 0.212 ± 0.018. The same measure, in the same setting: then UCGACCUACACGAUGCAUAGUAUUUAGUAA, with 0.732 ± 0.059. For UCCUGGAAGAGCUUGCAUAGUAUUUAGUUA, the “pre-steady-state target cleavage rate” value is 0.875 ± 0.046.

On to AGGAGCUACAGCUUGCAUAGUAUUUACAAA, for which the “pre-steady-state target cleavage rate” value is 0.34 ± 0.054. For the sequence UCCUGGAACAGCUUGCUUAGUAUUAAGUUA, the “pre-steady-state target cleavage rate” value was 0.275 ± 0.03. Still for that read-out and setting: then UCCUGGAUGUCCUUGCAUAGUAUUAUAGUUA, with 0.0236 ± 0.0064; and UCCUGGUACAGCUCUGCAUAGUAUUUAGUUA, with 0.921 ± 0.051. Still for that read-out and setting: then UGGACCUACAGCUGCAUAGUAUUUAGUUA, with 1.37 ± 0.11; and UCGACCUACACCUUGCAUAGUAAUUAGUUA, with 0.734 ± 0.068. Still for that read-out and setting: then “UCCUGCUACAGCUUGCAUAGUAUUUAGUUA [g2:g25:cont:t1A]”, with 0.864 ± 0.042; and UCCUGGAACAGCUUGCAUAGAAAUUAGUUA, with 0.069 ± 0.011. In the case of UCGACCAACAGCUUGCAUAGAAUUUAGUUA, the “pre-steady-state target cleavage rate” value is 0.402 ± 0.029. On to UCCUGGAUCAGCUAGCAUAGUAAUUAGUUA, for which the “pre-steady-state target cleavage rate” value was 0.239 ± 0.023. Still for that read-out and setting: then UCCUGGAUUAGCUUGCAUAGUAUUUAGUUA, with 0.925 ± 0.034. Same read-out and setting: then UCCACCUACUGCUUGCAUAGUAUUUACUUA, with 0.243 ± 0.025; and UCCUCCUACAGCAUGCAUAGUAUUUAGAUA, with 0.454 ± 0.046; and UCGACCUAGAGCUUGCAUAGUAUUUAGUAA, with 0.941 ± 0.057. On the same count and under the same terms, then UGGACCAACAGCUUGCAUAGUAUUUACAAA, with 0.235 ± 0.026. Turning to UCCUGGAACAGCUUGCAUAGAAUUUUGUUA, the “pre-steady-state target cleavage rate” value was 0.216 ± 0.045.

Staying with this experiment, now noted: guide: L1MC piRNA 5'p-UAACUAAAUACUAUGCAAGCUGUAGGUCCU; auxiliary factor: none (no GTSF1).
For UCCUGGAUGUCGAACCAUACUAAUUAGUUA, the “pre-steady-state target cleavage rate” value is less than 0.0001. As for UCCUGGAUGUGCUGCAUAGUAUUUAGUUA, the “pre-steady-state target cleavage rate” value worked out at 0.00446 ± 0.0032. The same measure, in the same setting: then UCCUCCUACAGCUUGCUUUGUAUUUAGUUA, with 0.00483 ± 0.0015; and UCGACCUACACGAUGCAUAGUAUUUAGUAA, with 0.00229 ± 0.0023; and UCCUGGAAGAGCUUGCAUAGUAUUUAGUUA, with 0.0433 ± 0.0086.

In the case of AGGAGCUACAGCUUGCAUAGUAUUUACAAA, the “pre-steady-state target cleavage rate” value is 0.00933 ± 0.0028. For the sequence UCCUGGAACAGCUUGCUUAGUAUUAAGUUA, the “pre-steady-state target cleavage rate” value was 0.0112 ± 0.0042.

In the case of UCCUGGUACAGCUCUGCAUAGUAUUUAGUUA, the “pre-steady-state target cleavage rate” value was 0.0202 ± 0.0059. For the sequence UGGACCUACAGCUGCAUAGUAUUUAGUUA, the “pre-steady-state target cleavage rate” value stood at 0.00982 ± 0.0031. Same read-out and setting: then UCGACCUACACCUUGCAUAGUAAUUAGUUA, with 0.0226 ± 0.004; and “UCCUGCUACAGCUUGCAUAGUAUUUAGUUA [g2:g25:cont:t1A]”, with 0.0585 ± 0.01. As for UCCUGGAACAGCUUGCAUAGAAAUUAGUUA, the “pre-steady-state target cleavage rate” value was 0.00611 ± 0.0041. With UCGACCAACAGCUUGCAUAGAAUUUAGUUA, the “pre-steady-state target cleavage rate” value is 0.024 ± 0.0058. The same measure, in the same setting: then UCCUGGAUCAGCUAGCAUAGUAAUUAGUUA, with 0.00493 ± 0.0021; and UCCUGGAUUAGCUUGCAUAGUAUUUAGUUA, with 0.0734 ± 0.015. The same measure, in the same setting: then UCCACCUACUGCUUGCAUAGUAUUUACUUA, with 0.0254 ± 0.0034; and UCCUCCUACAGCAUGCAUAGUAUUUAGAUA, with 0.00789 ± 0.0023.

On to UCGACCUAGAGCUUGCAUAGUAUUUAGUAA, for which the “pre-steady-state target cleavage rate” value came out at 0.0365 ± 0.0094. The same measure, in the same setting: then UGGACCAACAGCUUGCAUAGUAUUUACAAA, with 0.00615 ± 0.0021; and UCCUGGAACAGCUUGCAUAGAAUUUUGUUA, with 0.0149 ± 0.0042.
